The results in this text go back to the supplement of paper PMC4604168 (melanoma cell lines).

Structures are written as SMILES. The list shows a part of the results. Many values rest on one well or one pass, so single values are uncertain.
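Note: cells treated in 1,536-well plates, then fixed and DAPI-stained, with nuclei counted from automated high-throughput microscope images.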

The first experiment relates to WM1716. Nature of the experiment: cell count relative to DMSO control; melanoma cells; higher = more viable cells. The conditions noted are these: library dose: standard library concentration; 72 h.
Turning to `CCCS(=O)(=O)Nc1ccc(F)c(C(=O)c2c[nH]c3ncc(Cl)cc23)c1F` + Oc1nc(-c2ccc(C(F)(F)F)cc2)nc2c1CSCC2 [XAV939] (first compound 0.4 µM, partner dose 10 µM), the cell count stood at 57.5%. Still for that read-out and setting: the value for `CN(c1ncccc1CNc1nc(Nc2ccc3c(c2)CC(=O)N3)ncc1C(F)(F)F)S(C)(=O)=O` + COc1cc(N2CCC(N3CCN(C)CC3)CC2)ccc1Nc1ncc(Cl)c(Nc2ccccc2S(=O)(=O)C(C)C)n1 [NVP-TAE684] (first compound 0.4 µM, partner dose 0.4 µM) was 76.6%; that for `CCCS(=O)(=O)Nc1ccc(F)c(C(=O)c2c[nH]c3ncc(Cl)cc23)c1F` + c1cc(-c2cnn3cc(-c4ccc(OCCN5CCCCC5)cc4)cnc23)ccn1 [Dorsomorphin] (first compound 0.4 µM, partner dose 2 µM) was 56.9%; that for `NC1(c2ccc(-c3nc4ccn5c(=O)[nH]nc5c4cc3-c3ccccc3)cc2)CCC1` + O=C1NC(=O)/C(=C/c2ccc(-c3ccc(F)cc3O)o2)S1 [AS252424] (first compound 2 µM, partner dose 5 µM) was 76.1%. On the same count and under the same terms, the value for `CCCS(=O)(=O)Nc1ccc(F)c(C(=O)c2c[nH]c3ncc(Cl)cc23)c1F` + Cc1cc([N+](=O)[O-])ccc1NS(=O)(=O)c1cc(Cl)ccc1Cl [FH535] (first compound 0.4 µM, partner dose 5 µM) was 70.3%; that for `CN(c1ncccc1CNc1nc(Nc2ccc3c(c2)CC(=O)N3)ncc1C(F)(F)F)S(C)(=O)=O` + CC(C)CCN1c2nc(Nc3cc(F)c(O)c(F)c3)ncc2N(C)C(=O)C1C [BID1870] (first compound 0.4 µM, partner dose 1 µM) was 72.2%.

The next experiment has as its system WM1745. The description is as above. The conditions noted are these: library dose: standard library concentration; 72 h.
Molecule `CCCS(=O)(=O)Nc1ccc(F)c(C(=O)c2c[nH]c3ncc(Cl)cc23)c1F` + NC(=O)Nc1cc(-c2cccc(F)c2)sc1C(=O)N[C@H]1CCCNC1 [AZD7762] (first compound 0.4 µM, partner dose 0.1 µM) had a cell count of 71.4%. Still for that read-out and setting: in the case of `CN(c1ncccc1CNc1nc(Nc2ccc3c(c2)CC(=O)N3)ncc1C(F)(F)F)S(C)(=O)=O` + COc1cc2c(Oc3ccc4[nH]c(C)cc4c3F)ncnc2cc1OCCCN1CCCC1 [cediranib] (first compound 0.4 µM, partner dose 2 µM) it was 61%; in that of `CCCS(=O)(=O)Nc1ccc(F)c(C(=O)c2c[nH]c3ncc(Cl)cc23)c1F` + Cc1cc(N2CCOCC2)cc2[nH]c(-c3c(NC[C@@H](O)c4cccc(Cl)c4)cc[nH]c3=O)nc12 [BMS536924] (first compound 0.4 µM, partner dose 1 µM), 56.7%. Same read-out and setting: the value for `C=C(c1ccc(C(=O)O)cc1)c1cc2c(cc1C)C(C)(C)CCC2(C)C` [Bexarotene] + C[C@@H]1CCN(C(=O)CC#N)C[C@@H]1N(C)c1ncnc2[nH]ccc12 [CP690550] (first compound 10 µM, partner dose 5 µM) was 79.1%; that for `CCCS(=O)(=O)Nc1ccc(F)c(C(=O)c2c[nH]c3ncc(Cl)cc23)c1F` + COc1cc2c(Oc3ccc4[nH]c(C)cc4c3F)ncnc2cc1OCCCN1CCCC1 [cediranib] (first compound 0.4 µM, partner dose 2 µM) was 55.2%.

In the next experiment the test system is WM3526. The experiment is described as above. The conditions noted are these: library dose: standard library concentration; 72 h.
Take `CCCS(=O)(=O)Nc1ccc(F)c(C(=O)c2c[nH]c3ncc(Cl)cc23)c1F` + NC(=O)Nc1cc(-c2cccc(F)c2)sc1C(=O)N[C@H]1CCCNC1 [AZD7762] (first compound 0.4 µM, partner dose 0.1 µM): the cell count was determined as 46.4%.

`CN(c1ncccc1CNc1nc(Nc2ccc3c(c2)CC(=O)N3)ncc1C(F)(F)F)S(C)(=O)=O` + O=c1cc(-c2cccc3c2Sc2ccccc2S3)oc(N2CCOCC2)c1 [KU55933] (first compound 0.4 µM, partner dose 5 µM) had a cell count of 80%.

With `CN(c1ncccc1CNc1nc(Nc2ccc3c(c2)CC(=O)N3)ncc1C(F)(F)F)S(C)(=O)=O` + O=C(O)C(=O)Nc1sc2c(c1C(=O)O)CCNC2 [TCS401] (first compound 0.4 µM, partner dose 8.33333 µM), the cell count was 93.2%. The same measure, in the same setting: in the case of `NC1(c2ccc(-c3nc4ccn5c(=O)[nH]nc5c4cc3-c3ccccc3)cc2)CCC1` + O=S(=O)(c1ccccc1)N(CC(F)(F)F)c1ccc(C(O)(C(F)(F)F)C(F)(F)F)cc1 [T0901317] (first compound 2 µM, partner dose 7 µM) it was 65.6%; in that of `CCCS(=O)(=O)Nc1ccc(F)c(C(=O)c2c[nH]c3ncc(Cl)cc23)c1F` + O=S(=O)(c1ccccc1)N(CC(F)(F)F)c1ccc(C(O)(C(F)(F)F)C(F)(F)F)cc1 [T0901317] (first compound 0.4 µM, partner dose 7 µM), 59%; in that of `CN(c1ncccc1CNc1nc(Nc2ccc3c(c2)CC(=O)N3)ncc1C(F)(F)F)S(C)(=O)=O` + O=C(Nc1ccccc1)c1cc([N+](=O)[O-])ccc1Cl [GW9662] (first compound 0.4 µM, partner dose 10 µM), 97%.

`CS(=O)(=O)c1ccc(C(=O)Nc2ccc(Cl)c(-c3ccccn3)c2)c(Cl)c1` [vismodegib] + COc1cc2ncnc(Nc3ccc(Oc4ccccc4)cc3)c2cc1OC [SrcI1] (first compound 5 µM, partner dose 10 µM): the cell count stood at 82.1%. Same read-out and setting: the value for `NC1(c2ccc(-c3nc4ccn5c(=O)[nH]nc5c4cc3-c3ccccc3)cc2)CCC1` + O=C(O)C(=O)Nc1sc2c(c1C(=O)O)CCNC2 [TCS401] (first compound 2 µM, partner dose 8.33333 µM) was 76%.

Regarding `NC1(c2ccc(-c3nc4ccn5c(=O)[nH]nc5c4cc3-c3ccccc3)cc2)CCC1` + COc1ccc(COc2ccc(Cc3cnc(N)nc3N)cc2OC)cc1 [GW2580] (first compound 2 µM, partner dose 5 µM), the cell count worked out at 65.9%. As to `CS(=O)(=O)c1ccc(C(=O)Nc2ccc(Cl)c(-c3ccccn3)c2)c(Cl)c1` [vismodegib] + Cn1cc(/C=C2\C(=O)Nc3cccnc32)c2ccccc21 [GW441756] (first compound 5 µM, partner dose 2 µM), the cell count was found to be 83.3%.

Molecule `NC1(c2ccc(-c3nc4ccn5c(=O)[nH]nc5c4cc3-c3ccccc3)cc2)CCC1` + CCN(CC)CCCCNc1ncc2cc(-c3cc(OC)cc(OC)c3)c(NC(=O)NC(C)(C)C)nc2n1 [PD173074] (first compound 2 µM, partner dose 0.5 µM) had a cell count of 57.9%. For the molecule `C=C(c1ccc(C(=O)O)cc1)c1cc2c(cc1C)C(C)(C)CCC2(C)C` [Bexarotene] + COc1ccc(-c2ccc3c(N4CCOCC4)nc(N4C[C@@H](C)O[C@@H](C)C4)nc3n2)cc1CO [KU0063794] (first compound 10 µM, partner dose 0.1 µM), the cell count was 98.7%. On the same count and under the same terms, in the case of `NC1(c2ccc(-c3nc4ccn5c(=O)[nH]nc5c4cc3-c3ccccc3)cc2)CCC1` + c1cc(-c2cnn3cc(-c4ccc(OCCN5CCCCC5)cc4)cnc23)ccn1 [Dorsomorphin] (first compound 2 µM, partner dose 2 µM) it was 57.5%. Still for that read-out and setting: in the case of `CN(c1ncccc1CNc1nc(Nc2ccc3c(c2)CC(=O)N3)ncc1C(F)(F)F)S(C)(=O)=O` + O=S(=O)(c1ccccc1)N(CC(F)(F)F)c1ccc(C(O)(C(F)(F)F)C(F)(F)F)cc1 [T0901317] (first compound 0.4 µM, partner dose 7 µM) it was 82.7%; in that of `C=C(c1ccc(C(=O)O)cc1)c1cc2c(cc1C)C(C)(C)CCC2(C)C` [Bexarotene] + O=C1NC(=O)/C(=C/c2ccc(-c3ccc(F)cc3O)o2)S1 [AS252424] (first compound 10 µM, partner dose 5 µM), 87.1%. Still for that read-out and setting: the value for `CN(c1ncccc1CNc1nc(Nc2ccc3c(c2)CC(=O)N3)ncc1C(F)(F)F)S(C)(=O)=O` + COc1cc2c(Oc3ccc4[nH]c(C)cc4c3F)ncnc2cc1OCCCN1CCCC1 [cediranib] (first compound 0.4 µM, partner dose 2 µM) was 96.8%; that for `CCCS(=O)(=O)Nc1ccc(F)c(C(=O)c2c[nH]c3ncc(Cl)cc23)c1F` + CCCCCCCCCCCC1=C(O)C(=O)C=C(O)C1=O [Embelin] (first compound 0.4 µM, partner dose 6 µM) was 73.4%; that for `CCCS(=O)(=O)Nc1ccc(F)c(C(=O)c2c[nH]c3ncc(Cl)cc23)c1F` + Cc1cc(N2CCOCC2)cc2[nH]c(-c3c(NC[C@@H](O)c4cccc(Cl)c4)cc[nH]c3=O)nc12 [BMS536924] (first compound 0.4 µM, partner dose 1 µM) was 52.1%.

In turn, `C=C(c1ccc(C(=O)O)cc1)c1cc2c(cc1C)C(C)(C)CCC2(C)C` [Bexarotene] + Cn1cc(/C=C2\C(=O)Nc3cccnc32)c2ccccc21 [GW441756] (first compound 10 µM, partner dose 2 µM) gave a cell count of 71.5%. On the same count and under the same terms, the value for `C=C(c1ccc(C(=O)O)cc1)c1cc2c(cc1C)C(C)(C)CCC2(C)C` [Bexarotene] + C[C@@H]1CCN(C(=O)CC#N)C[C@@H]1N(C)c1ncnc2[nH]ccc12 [CP690550] (first compound 10 µM, partner dose 5 µM) was 81.2%; that for `C=C(c1ccc(C(=O)O)cc1)c1cc2c(cc1C)C(C)(C)CCC2(C)C` [Bexarotene] + N#Cc1c(O)c2c(-c3ccc(-c4ccccc4O)cc3)csc2[nH]c1=O [A769662] (first compound 10 µM, partner dose 10 µM) was 85.6%; that for `C=C(c1ccc(C(=O)O)cc1)c1cc2c(cc1C)C(C)(C)CCC2(C)C` [Bexarotene] + Cc1cc([N+](=O)[O-])ccc1NS(=O)(=O)c1cc(Cl)ccc1Cl [FH535] (first compound 10 µM, partner dose 5 µM) was 75.3%.
